# Experimental data from the supplement of paper PMC3334620.
# Whole data set: some 33,000 sequences, median “E-score (-0.5 to 0.5)” near -0.041, cut for the highest 2% near 0.37. This is one part of the list.
# Biological target: T1, Ecm22 (UniProt Q05958)
# T1 sequence: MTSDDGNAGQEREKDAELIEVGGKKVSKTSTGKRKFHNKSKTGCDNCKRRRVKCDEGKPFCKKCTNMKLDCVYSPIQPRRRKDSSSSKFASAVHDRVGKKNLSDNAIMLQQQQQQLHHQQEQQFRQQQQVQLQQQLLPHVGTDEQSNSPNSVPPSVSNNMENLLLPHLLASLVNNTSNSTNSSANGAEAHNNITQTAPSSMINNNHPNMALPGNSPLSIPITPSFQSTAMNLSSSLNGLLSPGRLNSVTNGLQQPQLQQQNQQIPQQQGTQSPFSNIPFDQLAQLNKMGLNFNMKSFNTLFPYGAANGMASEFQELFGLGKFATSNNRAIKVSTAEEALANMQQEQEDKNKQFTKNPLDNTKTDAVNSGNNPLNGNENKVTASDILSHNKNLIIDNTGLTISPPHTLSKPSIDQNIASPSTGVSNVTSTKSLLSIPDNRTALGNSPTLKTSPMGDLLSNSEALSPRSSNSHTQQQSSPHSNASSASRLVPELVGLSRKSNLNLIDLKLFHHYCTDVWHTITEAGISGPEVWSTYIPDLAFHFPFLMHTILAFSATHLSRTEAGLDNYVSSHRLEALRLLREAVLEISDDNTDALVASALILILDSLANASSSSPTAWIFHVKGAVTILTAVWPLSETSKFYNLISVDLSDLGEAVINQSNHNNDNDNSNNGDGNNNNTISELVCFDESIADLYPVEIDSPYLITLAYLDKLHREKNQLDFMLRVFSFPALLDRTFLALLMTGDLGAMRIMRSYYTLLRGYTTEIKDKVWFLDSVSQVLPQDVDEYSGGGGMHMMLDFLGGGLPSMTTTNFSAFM
# Experiment: PBM E-score (8-mer binding enrichment) (E-score (-0.5 to 0.5)); higher = stronger / more preferred TF binding; most listed sequences are background and not binding sites
# Details: protein concentration: 200 nM; construct: GST-full length
# Experimental: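 Universal 'all 10-mer' protein binding microarrays (Agilent AMADID 015681) probed with GST-tagged S. cerevisiae TFs (full-length or DBD) made by in vitro transcription/translation (PURExpress), about 100-200 nM. Bound TF was detected with fluorescent anti-GST. Each ungapped 8-mer (which stands for itself and its reverse complement) is scored by the PBM enrichment score (E-score), a modified Wilcoxon-Mann-Whitney statistic from -0.5 to +0.5, computed with the Universal PBM Analysis Suite. Scale: above 0.35 generally sequence-specific binding.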
row,Sequence,PBM E-score
1,CTGGAGAC,-0.135
2,AAAGGACG,0.0797
3,AAAAATTG,-0.078
4,CGCCATAC,0.171
5,AGTTTTAT,0.0219
6,CCGAAGTA,0.148
7,TAGAAGAA,-0.011
8,AATCAACT,0.0303
9,CAAATAAC,0.0389
10,AACCATTC,-0.23
11,ACATCGCC,-0.204
12,CGTTCTTA,0.271
13,CAATGCCA,-0.161
14,CCGGTAAG,0.0008
15,TAACGCGA,0.189
16,GCGCTCTA,-0.0931
17,GATCGCGA,0.194
18,TACGGAGA,0.334
19,CTGTACAA,-0.0518
20,TGACGAAA,0.061
21,TATCTAAA,0.128
22,AAAAAGCC,-0.00844
23,AGATTGTA,0.122
24,GGTTTCGA,0.0323
25,ATGGGGAG,-0.115

row,Sequence,PBM E-score
1,CAGGGCAC,0.16
2,GCAGTACC,-0.0702
3,TACACGGA,0.121
4,GCCACAGC,-0.249
5,ATCTGTAG,-0.116
6,AACTCAAA,0.0495
7,AAGCGACG,0.215
8,CGTAAGCC,0.199
9,GTAGGTGA,-0.129
10,TCAGATGA,-0.231
11,AGTAATAG,-0.00228
12,CTCGACTA,-0.0931
13,CGATGGCC,-0.0616
14,AGGGGCCA,-0.17
15,CCTACCGC,-0.144
16,AGGTGTTC,-0.146
17,CAGGGGGG,-0.201
18,AGCTATTG,-0.0818
19,AAGAAGAA,0.015
20,GCGATATA,0.273
21,ATGTCGCA,0.267
22,CAGAGGGA,-0.00329
23,ATACGCGC,0.301
24,AGTCGTTG,0.184
25,CGGAACAC,0.0377

row,Sequence,PBM E-score
1,TAATGCCA,-0.00988
2,GCCTCAAC,-0.173
3,ACTTCCTG,-0.106
4,CGATGCAG,-0.00827
5,ATACTTAC,0.0382
6,GAATCAAA,0.0232
7,TAGACACA,-0.238
8,AGTTGTCA,-0.0616
9,TCTATCCA,-0.169
10,ATAAGGGG,-0.228
11,ACTTATCA,-0.0899
12,TAATAGAA,-0.0249
13,AGTCGAGG,-0.0783
14,CCTTGGGA,-0.316
15,ACTTACCA,-0.0988
16,ACCCCGAC,-0.0233
17,CGGGCTAA,-0.134
18,AAAGTCCA,-0.244
19,GAACGAAC,0.453
20,AGCCTGGA,-0.301
21,ACTATCCT,-0.133
22,AGGGCTAG,-0.279
23,AATCCCTA,0.0792
24,CTCAACTA,-0.194
25,AGACAGAC,0.082

row,Sequence,PBM E-score
1,AGGGTCAG,-0.273
2,GTAGACTA,0.00348
3,ATATAGAA,0.00358
4,GTCCAGAA,-0.142
5,GAGATGGC,-0.16
6,AGGTGGGG,-0.193
7,GTCCCTGA,-0.198
8,CATAGCGA,0.0572
9,CGTCACCC,-0.0688
10,CACTTTCG,0.0793
11,CACAGTTC,-0.0557
12,AAAATGGC,-0.0688
13,TCTTACCA,0.061
14,TGCATTAA,-0.0505
15,CCGGCAAC,-0.0588
16,AGGGACGA,-0.0321
17,CAAGTAGA,-0.184
18,CTAGGAAA,-0.209
19,CCGTCCCG,-0.0784
20,ATGACTGG,-0.134
21,CCTTATGC,-0.0883
22,GAGCTATC,0.00129
23,GCGGCGGA,0.111
24,CTTGCATA,-0.118
25,AGCAGATA,0.0376

row,Sequence,PBM E-score
1,ATTTTGAA,0.059
2,GACTCAAC,-0.0322
3,ATTTACGG,0.31
4,GATACAAC,-0.0873
5,CCACTAAC,-0.137
6,TGCATGAA,0.0637
7,CACCGTCG,0.0865
8,ATTTAGCC,0.0231
9,CCATTTAC,-0.043
10,ACCACTAT,-0.0396
11,AAAGAGGT,-0.244
12,ACTGAGGA,0.0578
13,AAGGGATT,-0.119
14,ACCCAGCG,-0.184
15,AGGCCGAA,0.0838
16,GACATTAC,-0.0488
17,CACATCCC,-0.181
18,GGCGATAA,-0.103
19,ATGATGAA,-0.00452
20,CATAGTGG,-0.181
21,AGAAGCAG,-0.203
22,AGCCGTGG,-0.24
23,CTCTGGTA,-0.113
24,GACGAGGA,0.175
25,ACAAGGTG,-0.0914

row,Sequence,PBM E-score
1,ACCAACTG,-0.122
2,TATCGCGA,0.25
3,AGATCGTC,-0.0821
4,AAATTATT,-0.156
5,CCCGAATA,0.0892
6,AAGTAGAC,0.0636
7,ACACAGGG,-0.135
8,CCAATTGC,-0.241
9,GGGCTTGA,-0.261
10,TGCTGTAA,0.0757
11,AACCTGAA,-0.2
12,CATGGCAA,-0.147
13,GCCGAACA,0.135
14,CCAACTAG,-0.172
15,TTCAACAA,0.00651
16,ATATGGAT,0.133
17,ACCTTGCT,-0.183
18,ACAGCTAG,-0.195
19,ATCCACTG,-0.192
20,TAGCGGAA,0.0753
21,CGGCACGC,0.161
22,GGGGATCA,-0.16
23,AAAGTCCC,-0.187
24,ACTTCGGG,-0.0975
25,CAAAGCAC,-0.134

row,Sequence,PBM E-score
1,CTGTCTTC,-0.0637
2,GATAGAGC,0.0232
3,ACTTTACG,0.394
4,AAAGTTCA,-0.0813
5,TGCCAAAA,-0.209
6,GTATTAAC,0.26
7,CGTGGGAA,-0.0898
8,ACAGGTGC,-0.296
9,AGTGCCAG,-0.285
10,ACGTAGTA,0.16
11,ACGGGCGA,0.0901
12,ACTGATGG,-0.294
13,CAACAGCC,-0.0816
14,CCGGTACA,0.0868
15,CACGAAGA,0.226
16,ATGTCATC,-0.129
17,GGGGCGCA,-0.18
18,ACACGCTC,0.072
19,CAGACTCG,0.174
20,ATCTAGCC,-0.0568
21,ACATTGAA,0.0404
22,ACCTCAGC,0.0319
23,ATTAGCTC,0.0201
24,CCGCACCG,0.178
25,ATAACCTA,-0.0165

row,Sequence,PBM E-score
1,CTTGCCGA,-0.0634
2,ACCGTGAA,-0.144
3,AGCCTACA,-0.301
4,AGGGCATG,-0.219
5,GGGCCTGA,-0.174
6,CACTCGCC,0.0536
7,CGTACAGA,0.382
8,GACGAATA,0.0261
9,AATATGAG,0.0443
10,ATCTTCAA,-0.215
11,AAGGAATG,0.00273
12,CGTAATCC,0.142
13,GAGAGACA,-0.234
14,ACTGTACC,-0.0754
15,AGCCGCAG,-0.0476
16,AGATAAGG,-0.0977
17,ACAAGCCT,-0.0972
18,AGGTATAT,-0.117
19,TAGTGACA,-0.173
20,GGTAGCTA,-0.142
21,GTCTGCAA,-0.237
22,AGCGACCC,0.203
23,ATTGTCAG,-0.134
24,AGGGGATC,-0.101
25,CACTGGCA,-0.302

row,Sequence,PBM E-score
1,CGGAGGCC,-0.117
2,CTATTGAA,-0.00223
3,ATATTCTG,-0.06
4,CCAGCTCG,0.224
5,TCATACAA,-0.115
6,CTTACGCA,0.0308
7,AATACGTC,0.0846
8,CTAAGGTA,-0.116
9,ACTTGTCC,0.0924
10,ATTAGCGA,0.3
11,ATTACATC,0.134
12,CTAAGGAC,-0.163
13,TTAAGTAA,-0.141
14,GACAAAAC,0.0451
15,ATTTATGC,-0.0278
16,CAGGTTCG,0.159
17,AGACTACA,0.106
18,AATCGTCT,0.0505
19,ACGCTTAG,0.149
